# In the supplement of paper PMC12217912:
# The other results are listed elsewhere or left out. The full chains were built here from the parent and the listed change. Inactive controls read about 0.05.
# B1: TEV protease; numbered along this chain (parent)
# chain: MGESLFKGPRDYNPISSSICHLTNESDGHTTSLYGIGFGPFIITNKHLFRRNNGTLVVQSLHGVFKVKDTTTLQQHLVDGRDMIIIRMPKDFPPFPQKLKFREPQREERICLVTTNFQTKSMSSMVSDTSCTFPSGDGIFWKHWIQTKDGQCGSPLVSTRDGFIVGIHSASNFTNTNNYFTSVPKNFMELLTNQEAQQWVSGWRLNADSVLWGGHKVFMVKPEEPFQPVKEATQL
# Variants of: B1
# Experiment: raw area under fraction-flipped curve 0-4 h after induction (AUC4h, not background-subtracted), DNA-recorder readout of cleavage of the substrate (dimensionless); higher = more cleavage of the substrate by the protease variant
# Details: temperature: 34 °C; time window: 0-4 h after rhamnose induction
# 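Note: Bxb1 expression induced with 0.2% (w/v) L-rhamnose at OD600 near 0.5, cultures sampled hourly, flipped fraction per protease–substrate barcode pair counted by paired-end Illumina sequencing.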
Variant,area with substrate EELYFQS,area with substrate EGLYFQS,area with substrate EILYFQS,area with substrate EKLYFQS,area with substrate ELLYFQS,area with substrate EMLYFQS,area with substrate EPLYFQS,area with substrate EQLYFQS,area with substrate ERLYFQS,area with substrate EWLYFQS
E3D,0.13,0.103,0.131,0.128,0.112,0.15,0.165,0.128,0.0996,0.129
Q118L,–,0.108,–,–,0.101,0.113,–,–,0.129,–
F95L,0.109,–,–,–,–,–,–,0.107,0.0243,–
F95N,–,–,0.0801,0.0974,0.0928,–,–,0.0944,0.0881,–
W212S,–,–,–,0.057,–,0.0725,–,0.0924,–,0.0753
W212N,–,–,–,–,–,0.0742,–,–,–,–
F92G,0.0877,0.0685,0.0636,–,–,–,–,–,0.0734,–
N172Q,–,–,–,–,0.0682,0.0439,–,–,–,0.0541
N172P,0.0543,–,0.0534,–,–,–,0.0606,–,–,0.0543
E103S,–,–,0.133,–,0.0782,0.152,–,–,–,–
E103I,–,0.0839,0.121,0.0912,–,–,0.132,0.107,–,–
L205Y,0.125,0.0718,0.0696,–,0.0641,0.0929,0.0826,–,0.0683,0.0961
W203D,–,–,–,–,–,0.0583,0.0616,–,–,0.0755
L99W,0.0924,–,0.0735,–,–,–,–,0.106,–,0.0766
F65V,0.105,–,0.0882,0.121,0.0859,–,–,–,–,–
F65Q,–,–,–,0.0777,–,–,–,0.123,0.0823,–
P93K,0.118,–,0.122,–,–,–,–,–,–,–
P93L,0.136,–,–,–,–,0.117,0.186,0.127,–,–
M83E,0.0561,–,–,–,–,0.0539,0.0709,–,0.0379,–
N178R,0.12,0.0821,0.0702,0.137,–,–,–,–,0.107,–
N178C,–,0.0724,–,–,–,–,–,–,–,–
G35S,0.0847,0.104,–,0.0808,–,–,–,0.0936,–,–
T233Y,0.0827,–,–,–,–,0.113,–,–,–,–
N53L,0.178,0.083,0.099,0.0841,0.102,0.0849,–,–,–,0.0766
S169Y,–,–,–,0.038,–,–,0.0538,–,0.0512,–
M125Y,0.102,–,–,–,–,0.0985,–,–,0.0798,–
R109T,0.124,0.091,0.102,0.0991,–,0.122,0.108,0.111,0.184,–

# Same assay, conditions: temperature: 34 °C; time window: 0-4 h after rhamnose induction
Variant,area with substrate EDLYFQS,area with substrate EHLYFQS,area with substrate EVLYFQS,area with substrate ESLYFQS,area with substrate ETLYFQS,area with substrate EFLYFQS,area with substrate EYLYFQS,area with substrate ECLYFQS
Q118L,0.138,0.137,–,–,–,–,–,–
F95N,0.102,–,0.0708,–,–,–,–,–
W212S,0.0756,0.0815,–,0.092,–,–,–,–
W212N,0.0961,–,–,0.0796,–,–,–,–
F92G,–,–,0.0747,–,–,–,–,–
N172Q,0.0604,–,0.0834,–,0.0724,–,–,–
E103S,0.113,0.128,–,0.13,0.104,–,–,–
E103I,0.0887,0.0091,0.11,0.1,–,–,–,–
L205Y,0.106,0.113,0.0845,0.0785,–,–,–,–
W203D,0.0692,–,0.0535,0.0673,–,–,–,–
L99W,–,–,–,–,–,0.0899,–,–
F65V,–,–,–,0.0898,–,–,–,–
F65Q,0.102,–,0.104,0.0916,–,–,–,–
P93L,–,0.149,–,0.128,–,–,–,–
M83E,0.077,–,0.0642,0.0659,–,–,0.0633,–
N178R,0.13,–,–,0.115,0.109,0.104,–,–
N178C,0.125,–,–,–,–,–,–,–
T233Y,0.0991,–,–,–,–,–,–,0.0786
N53L,–,–,–,0.101,–,0.0937,–,–
S169Y,0.057,–,–,–,–,–,–,–
M125Y,–,–,0.102,0.0994,–,–,–,–
R109T,–,0.112,0.104,0.11,–,–,–,–
